According to the supplement of paper PMC12217912:
Some of the results follow. The full chains were built here from the parent and the listed change. Values near 0.05 are background.

B1: TEV protease; numbered along this chain (parent)
chain: MGESLFKGPRDYNPISSSICHLTNESDGHTTSLYGIGFGPFIITNKHLFRRNNGTLVVQSLHGVFKVKDTTTLQQHLVDGRDMIIIRMPKDFPPFPQKLKFREPQREERICLVTTNFQTKSMSSMVSDTSCTFPSGDGIFWKHWIQTKDGQCGSPLVSTRDGFIVGIHSASNFTNTNNYFTSVPKNFMELLTNQEAQQWVSGWRLNADSVLWGGHKVFMVKPEEPFQPVKEATQL

Variants of: B1
Test: raw area under fraction-flipped curve 0-4 h after induction (AUC4h, not background-subtracted), DNA-recorder readout of cleavage of the substrate (dimensionless); higher = more cleavage of the substrate by the protease variant
Conditions: temperature: 34 °C; time window: 0-4 h after rhamnose induction
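Note: Bxb1 expression induced with 0.2% (w/v) L-rhamnose at OD600 near 0.5, cultures sampled hourly, flipped fraction per protease–substrate barcode pair counted by paired-end Illumina sequencing.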

Variant | area with substrate ENLYHQS | area with substrate ENLYIQS | area with substrate ENLYKQS | area with substrate ENLYMQS | area with substrate ENLYNQS | area with substrate ENLYPQS | area with substrate ENLYQQS | area with substrate ENLYRQS | area with substrate ENLYSQS | area with substrate ENLYTQS
W203A | 0.0462 | 0.0691 | 0.0664 | 0.056 | 0.0576 | 0.0666 | 0.0654 | 0.0653 | 0.0583 | 0.0554
G8D | – | 0.0944 | – | 0.0763 | 0.0581 | 0.0604 | 0.0619 | – | – | –
T72G | 0.0769 | 0.092 | – | 0.0704 | 0.0515 | – | 0.06 | 0.0657 | 0.0695 | 0.0655
T192W | – | – | – | – | – | – | 0.0624 | – | – | –
H168A | – | 0.0598 | – | 0.0557 | 0.0482 | 0.0464 | – | – | – | –
D128Y | 0.0825 | 0.13 | – | 0.1 | 0.0806 | – | – | 0.0918 | 0.114 | –
L5E | 0.111 | 0.125 | 0.0495 | 0.0931 | 0.0683 | 0.0911 | 0.0538 | 0.0541 | 0.076 | 0.0923
T176R | 0.0531 | – | 0.0167 | 0.0652 | – | 0.0664 | 0.0676 | 0.0738 | 0.0636 | –
L48E | 0.0628 | 0.0598 | 0.0668 | 0.0608 | 0.0616 | 0.0602 | 0.0573 | 0.0583 | – | –
V200S | – | – | – | – | – | – | – | – | 0.0547 | –
V200A | 0.041 | 0.0701 | – | – | – | 0.0368 | – | – | – | –
M88H | – | – | 0.0399 | – | 0.0445 | – | 0.048 | 0.0627 | – | 0.0391
K216R | 0.0899 | – | – | – | – | – | – | – | – | –
L56M | 0.0619 | 0.102 | 0.0768 | 0.0931 | 0.0714 | 0.0554 | – | – | 0.0643 | –
A232V | – | – | – | – | 0.0674 | 0.0771 | – | – | 0.0868 | –
A232T | 0.0709 | – | 0.067 | 0.0786 | – | – | 0.0442 | 0.0561 | – | –
V64R | 0.0671 | 0.121 | 0.0746 | – | – | – | 0.0512 | – | 0.0717 | 0.0777
V64L | – | 0.133 | 0.0645 | 0.0696 | 0.0754 | – | – | – | – | –
V64W | 0.0652 | 0.123 | 0.0569 | 0.101 | 0.0703 | 0.0853 | 0.105 | – | – | –

Same assay, conditions: temperature: 34 °C; time window: 0-4 h after rhamnose induction

Variant | area with substrate ENLYVQS | area with substrate ENLYWQS | area with substrate ENLYYQS | area with substrate ENLYGQS | area with substrate ENLYLQS | area with substrate ENLYEQS
W203A | 0.093 | 0.0578 | – | – | – | –
G8D | – | 0.0623 | 0.0613 | – | – | –
T72G | 0.0909 | – | 0.0733 | 0.0619 | – | –
H168A | – | – | – | – | 0.065 | –
D128Y | – | 0.099 | – | – | – | –
L5E | 0.147 | 0.0537 | 0.0676 | 0.063 | – | –
T176R | 0.106 | – | – | – | – | –
L48E | 0.0612 | 0.0599 | 0.0602 | 0.0594 | 0.0445 | –
V200S | – | 0.048 | – | – | – | –
V200A | – | – | – | – | 0.0721 | –
M88H | – | – | 0.0443 | – | – | –
L56M | – | 0.0797 | 0.076 | – | 0.0969 | –
A232V | – | – | – | 0.0518 | – | 0.0769
A232T | 0.165 | 0.0671 | – | – | – | –
V64R | 0.0619 | – | – | – | – | 0.0636
V64L | – | 0.0773 | 0.074 | – | – | 0.0638
V64W | 0.0893 | – | – | 0.0895 | 0.0759 | 0.0655
